Assay results reported in PubChem BioAssay AID1963861 (Molecular Pharmacology Branch, DTP, NCI, 2024).
The source holds more than one record for some entries. They are shown here; other results are not. The source may hold further records. Results that share an entry are repeats in other runs, samples, wells, individuals or studies. Counts like (3×) stand for listed records that agree. Dates in brackets are months of testing.

System: 885724-159-R-J1-PDC KRAS PDC multicell spheroid viability
Test: Anticancer human tumor 885724-159-R-J1-PDC patient-derived pancreatic adenocarcinoma cell line growth inhibition [KRAS2]
Settings: for viability, T/C: stronger effect = lower value; for IC50: compound alone
Description: Multicellular complex tumor spheroid response to RAS pathway inhibitors in combination with a targeted agents in patient-derived cell lines with oncogenic KRAS variants from multiple cancer types
A high-throughput screen of multi-cell type tumor spheroids was designed to identify active combinations of targeted small molecules and KRAS pathway inhibitors. Complex spheroids include a stromal component modeled by human endothelial cells (HUVEC) and fibroblasts modeled by human mesenchymal stem cells (MSCs). The concentration ranges selected for each drug and investigational agent were based upon clinically achievable concentrations if the clinical Cmax of the agent was known.
Compounds. The drugs and investigational agents: BI-3406 (NSC825286), BAY-293 (NSC824723), batoprotafib (TNO155; NSC825523), sotorasib (AMG 510; NSC818433), MRTX1257 (NSC819558), elimusertib (BAY 1895344; NSC800525), molibresib (GSK525762; NSC774829), temuterkib (LY3214996; NSC803410), venetoclax (NSC766270), alisertib (NSC759677), olaparib (NSC753686), talazoparib (NSC767125), erdafitinib (NSC781556), ipatasertib (NSC767898), cabozantinib (NSC761068), nintedanib (NSC756659), abemaciclib (NSC768073), docetaxel (NSC628503), trametinib (NSC758246), and sapanisertib (NSC764658) were obtained from the National Cancer Institute (NCI) Developmental Therapeutics Program Chemical Repository. The FDA-approved anticancer drug set is available from the Developmental Therapeutics Program. […] The stock solutions were prepared in dimethyl sulfoxide (DMSO, Sigma-Aldrich, St. Louis, MO, cat. D2650) at 800-fold the tested concentration and stored at -70 degrees C prior to their use. All drugs and investigational agents were tested over a range starting from a high concentration at or near the clinical Cmax and decreasing in half-log increments. If the clinical Cmax for an agent had not been determined, the highest concentration tested was 10 microM.
Cell Culture. All cells were maintained in an incubator at 37 degrees C and 5% CO2 with 95% humidity. The PDC lines were cultured according to standard operating procedures established by the NCI PDMR (https://pdmr.cancer.gov/sops/default.htm). Briefly, all PDCs were thawed and cultured in Matrigel-coated flasks prepared with a working solution of 1X Ham's F-12 nutrient mix, without supplementation (Invitrogen, Waltham, MA, cat. 11765054), 100 U/mL penicillin-streptomycin (Invitrogen, cat. 15140122), and 2.5% Matrigel (Corning Inc., Corning, NY, cat. 354248) for the first three passages. All PDCs were cultured in complete DMEM/F-12 media containing advanced DMEM/F-12 (Invitrogen, cat. 12634028), 4.9% defined fetal bovine serum, heat inactivated (HyClone Laboratories Inc., Logan, UT, cat. SH30070.03HI), 389 ng/mL hydrocortisone (Sigma-Aldrich, cat. H4001), 9.7 ng/mL human EGF recombinant protein (Invitrogen, cat. PHG0313), 23.4 microg/mL adenine (Sigma-Aldrich, cat. A2786), 97.3 U/mL penicillin-streptomycin (Invitrogen, cat. 15140122), 1.9 mM L-glutamine (Invitrogen, cat. 25030081), and 9.7 microM Y-27632 dihydrochloride (Tocris Bioscience, Bristol, United Kingdom, cat. 1254). The PDCs were cultured in complete DMEM/F12 media without 9.7 microM Y-27632 dihydrochloride for at least two passages prior to the screen. The established cell line HOP-62 was cultured in RPMI 1640 medium, HEPES (Invitrogen, cat. 22400105) with 10% defined fetal bovine serum (HyClone Laboratories Inc., cat. SH30070.03) and 2 mM L-glutamine (Invitrogen, cat. 25030081). The pooled donor HUVEC were cultured in endothelial cell growth medium 2 (PromoCell, Heidelberg, Germany, cat. C-22011) and the hMSC were cultured in mesenchymal stem cell growth medium 2 (PromoCell, cat. C-28009). For all experiments, HUVEC and hMSC were used at passages </=5, while the malignant cell lines were used at passages </=15. […]
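Note: spheroids exposed to agents for 7 days before readout.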

Row | Compound | viability, T/C (compound alone 0.316 µM) | viability, T/C (compound alone 1 µM) | viability, T/C (compound alone 3.16 µM) | viability, T/C (compound alone 10 µM) | also measured
1 | CN(C)C/C=C/C(=O)Nc1cc2c(Nc3ccc(F)c(Cl)c3)ncnc2cc1O[C@H]1CCOC1 | – | – | – | – | viability, T/C (compound alone 0.00316 µM): 94.3, 96, 71.5, 96.3, 99.8%
2 | CC(C)n1nc(-c2ccc3oc(N)nc3c2)c2c(N)ncnc21 | – | – | – | – | IC50: 45 nM, 32.2 nM, > 100 nM, 18 nM
3 | COc1cc2nc(C)nc(NC(C)c3cc(N)cc(C(F)(F)F)c3)c2cc1OC1CCOC1 (centres undefined) | 90.8 (2×), 98.8, 104, 101 (2×), 115, 83.5, 87.2, 93.9, 87.5% [2021-08] and 85.8, 92.5, 86.2, 105, 88% [2021-09] | 113, 90.1, 121, 97.3 (2×), 94.8, 108, 79.7, 83.5, 93.3, 89.5% [2021-08] and 88.6, 92.3, 81.1, 94.3, 82.2% [2021-09] | 98.5, 81.7, 92.5, 94.4, 75.5, 102, 79, 77.2, 83.1, 89.7, 87.3% [2021-08] and 69.2, 82.5, 87.5, 93.5, 78.2% [2021-09] | 99.1, 71, 98.2, 58.5, 45.2 (2×), 36.3, 24.2, 53.5, 34.7, 35.4% [2021-08] and 23.6, 38.5, 19.5, 64.4, 41.6% [2021-09] | viability, T/C (compound alone 0.1 µM): 110, 105 (2×), 108, 99.5, 111, 83.1, 97.3, 92.8, 97.9, 100% [2021-08] and 94.5, 88, 93.6, 105, 92.6% [2021-09]; IC50 (run of 08/26/2021): 5.81 µM, > 10 µM, 8.69 µM, 7.26 µM, 7.24 µM; IC50 (run of 09/02/2021): 5.14 µM, 7.47 µM, 5.95 µM, > 10 µM, 7.66 µM
4 | CC(=O)OC12COC1CC(O)C1(C)C(=O)C(O)C3=C(C)C(OC(=O)C(O)C(NC(=O)OC(C)(C)C)c4ccccc4)CC(O)(C(OC(=O)c4ccccc4)C21)C3(C)C (centres undefined) | 108 (2×), 98.5, 118, 126% | – | 106 (2×), 112, 121, 132% | – | –
5 | C=CC(=O)N1CCN(c2nc(=O)n(-c3c(C)ccnc3C(C)C)c3nc(-c4c(O)cccc4F)c(F)cc23)C(C)C1 (centres undefined) | – | – | 101 (2×), 107 (2×), 84.1, 85, 102, 109, 112, 108% [2021-08] and 114, 107, 101, 94.1% [2021-09] | 92.5, 84.5, 85.6, 83, 67, 70, 68.4, 84, 82.9, 90.3, 87% [2021-08] and 84.8, 75.9, 73.3, 72% [2021-09] | –
6 | CC1OCC2(CCN(c3cnc(Sc4ccnc(N)c4Cl)c(N)n3)CC2)C1N (centres undefined) | 96.9, 100, 102, 72.6, 86, 93, 77.3, 83.7, 83.9, 85.5, 73.4% [2021-08] and 81.3, 79.1, 79.5, 86.4, 82.6, 82.8, 80.7, 76.6% [2021-09] | 112, 144, 138, 78, 72.7 (2×), 86, 76.6, 74.1, 76.1, 70.8% [2021-08] and 77.4, 80.3, 72.8, 75.5, 77.9, 78.4, 75.7, 70.5% [2021-09] | – | 84.7, 137, 88.3, 60.8, 59.6, 84.8, 59.8, 74.4, 56.8, 57.5, 57.8% [2021-08] and 61.4, 59.8, 71.6, 63.6, 70.3, 66.1, 59, 62.8, 57.1% [2021-09] | –
7 | CNCc1ccccc1-c1csc(C(C)Nc2nc(C)nc3cc(OC)c(OC)cc23)c1 (centres undefined) | – | 99.2, 107, 110, 100, 94.3, 89.2, 87.4, 89.3, 82.9, 87.1, 99.3% [2021-08] and 84.6, 92.5, 89.7, 98% [2021-09] | 97.9, 1.03, 1.38, 1.98, 2.17, 1.23, 1.17, 1.72, 1.78, 1.22, 0.94% [2021-08] and 0.43, 2.59, 5.37, 4.18% [2021-09] | – | IC50 (run of 08/19/2021): 5.51, 1.81, 1.85, 1.8, 1.74, 1.67 µM
8 | CC1(C)CCC(CN2CCN(c3ccc(C(=O)NS(=O)(=O)c4ccc(NCC5CCOCC5)c([N+](=O)[O-])c4)c(Oc4cnc5[nH]ccc5c4)c3)CC2)=C(c2ccc(Cl)cc2)C1 | – | – | 105, 71.7, 98.4, 90.7, 86.3% | 45.1, 12.6, 33.3, 46.7, 46.2% | –
9 | C=CC(=O)N1CCN(c2nc(OCC3CCCN3C)nc3c2CCN(c2cccc4cccc(C)c24)C3)CC1CC#N (centres undefined) | – | 91.4, 94.1, 106, 91.5, 89.4, 76.7 (2×), 97, 85.4, 97.4, 81.7% [2021-08] and 77.6, 76, 81.8, 79.8, 78.2, 81.4% [2021-09] | 111, 49.8, 67.5, 59.4, 46.6, 48.1, 52.1, 58.6, 49, 60, 58.4% [2021-08] and 49.7, 55.7, 52, 52.6, 47.6, 47.1% [2021-09] | – | viability, T/C (compound alone 0.1 µM): 95.7, 107, 114, 96.6, 118, 102 (2×), 112, 99.6, 103, 97.6% [2021-08] and 91.7, 94.6, 91.9, 95.6, 102, 99.6% [2021-09]
